Measured values from PubChem BioAssay AID463173 (ICCB-Longwood Screening Facility, Harvard Medical School, 2010).
Out of some 52,000 compounds screened, about 1,700 (3.3%) were called active. No stated cut-off is given here; in the data, active means survival mostly below about 52% (no sharp cut-off); inactive means mostly above about 56%. The list shows a part of the results.

Test system: Wild type
Assay: S. aureus survival, RN4220 and DeltatarO strains – OD600, teichoic acid synthesis inhibitors, primary screen (AID 463173)
Details: S. aureus RN4220 wild type/DeltatarO growth, OD600, 18 h, active compounds read low, screened at 18.75 µg/mL (by protocol)

| Compound | survival |
| --- | --- |
| CCCNc1ncnc2c1c(-c1ccccc1)cn2-c1ccccc1 | inactive: 71% |
| CCn1cc(C(=O)N2CCN(c3cccc(C)c3)C(C)C2)c(=O)c2cc(S(=O)(=O)N3CCOCC3)ccc21 (stereo not drawn) | inactive: 90% |
| Nc1nc(Nc2cccc3ccccc23)nc(C2CCCC2=O)n1 (stereo not drawn) | inactive: 102% |
| COc1ccc(-c2nsc(NC(=O)c3oc4ccccc4c3C)n2)cc1 | inactive: 99% |
| CN(C)c1ccc(CNC(=O)CCCN2C(=O)CCn3nc(-c4cn(C)c5ccccc45)cc32)cc1 | active: -1% |
| COCCn1c(C)cc(O)c(C(c2ccccc2Cl)N2CCCCC2)c1=O (stereo not drawn) | inactive: 73% |
| CCCN1CCN(CCCNC(=O)c2cc3c(s2)-c2ccccc2OC3)CC1 | inactive: 83% |
| N#Cc1ccccc1OCC(=O)N1CCN(c2ccccc2)CC1 | inactive: 82% |
| Cc1coc2c(C)c3oc(=O)c(CCC(=O)N4CCCCC4)c(C)c3cc12 | inactive: 67% |
| Cc1nc2c(c(C)c1CCC(=O)Nc1ccc(F)cc1)c(=O)n(C)c(=O)n2C | inactive: 73% |
| Cc1c(NS(=O)(=O)c2ccc(Cl)cc2)c(=O)n(-c2ccccc2)n1C | inactive: 75% |
| Cc1ccc(Cn2cc(CCC(=O)NCC(C)c3ccccc3)c3ccccc32)cc1 (stereo not drawn) | inactive: 109% |
| COc1ccc(NC(=O)Cn2nnc(-c3nc(-c4ccncc4)no3)c2N)cc1OC | inactive: 92% |
| Cc1cccc(C)c1NC(=O)C1CCCN1S(=O)(=O)c1cccc2nsnc12 (stereo not drawn) | inactive: 67% |
| COc1ccc(C2=NN(CCC(=O)NCCc3ccccc3)C(=O)CC2)cc1 | inactive: 127% |
| COCCn1c(C)cc(O)c(C(c2ccccc2F)N2CCN(c3ccccc3)CC2)c1=O (stereo not drawn) | inactive: 71% |
| COc1ccccc1CCNC(=O)C(=O)NCC(c1cccnc1)N1CCN(c2ccccc2)CC1 (stereo not drawn) | inactive: 82% |
| CCc1cccc(-n2nnc(S(=O)(=O)c3ccc(OC)cc3)c2C)c1 | inactive: 81% |
| Cc1ccc(NC(=O)c2cccc(NC(=O)N3CCSc4ncccc43)c2)cc1F | inactive: 92% |
| CCOc1ccc(CNC(=O)c2ccc(NC(=O)N3CCSc4ncccc43)cc2)cc1 | inactive: 63% |
| CCN(CC)CCCNC(=O)CCc1c(C)nc2c(c1C)c(=O)n(C)c(=O)n2C | inactive: 76% |
| COc1ccc(-c2cc(C(F)(F)F)nc(SCC(=O)Nc3ccc(O)cc3)n2)cc1OC | inactive: 75% |

| Compound | survival |
| --- | --- |
| Cc1ccc(C)c(NC(=O)c2cnc3sc(N4CCOCC4)nn3c2=O)c1 | inactive: 135% |
| CCCN1C(=O)c2oc3cc(C)cc(C)c3c(=O)c2C1c1ccc(F)cc1 (stereo not drawn) | inactive: 82% |
| COc1ccc(-c2nc3cc(NC(=O)COc4ccc(C)c(C)c4)ccc3o2)cc1 | inactive: 84% |
| Cc1cc(=O)c2cc(C(=O)Nc3cccc(C)c3C)ccc2[nH]1 | inactive: 85% |
| CCOC(=O)c1ccc(NC(=O)CN2C(=O)c3cccnc3Sc3ccccc32)cc1 | inactive: 66% |
| COc1ccc(Nc2ncc(C(=O)N3CCN(c4ccccc4OC)CC3)c3ccccc23)cc1 | inactive: 78% |
| CCOc1ccc(C(=O)NCCc2sc(-c3ccc(F)cc3)nc2C)cc1 | inactive: 97% |
| Cc1ccc(S(=O)(=O)Cn2nnnc2C(C(C)C)N2CCSCC2)cc1 (stereo not drawn) | inactive: 113% |
| Cc1ccccc1Cn1c(=O)n(CCCCCC(=O)NCc2ccc3c(c2)OCO3)c(=O)c2sccc21 | inactive: 95% |
| O=C(Cn1ncc2c3ccccc3n(Cc3cccc(Cl)c3)c2c1=O)NCCC1=CCCCC1 | inactive: 82% |
| Nc1ccc2c(c1)C(=O)N(CCCCN1C(=O)c3ccc(N)cc3C1=O)C2=O | inactive: 111% |
| COc1ccc(NC(=O)CSc2ncc3c(n2)-c2ccccc2N(C)S3(=O)=O)cc1Cl | inactive: 101% |
| CCN(CC)c1ccc(CNS(=O)(=O)c2cc3c(cc2C)NC(=O)CO3)cc1 | inactive: 73% |
| CCOc1ccc(NC(=O)Nc2c[nH]c(=O)[nH]c2=O)cc1 | inactive: 81% |
| Cn1c(SCc2ccccc2Cl)nc(=O)c2c1NC(=O)CC2c1cc(F)ccc1F (stereo not drawn) | inactive: 75% |
| CCOC(=O)c1ccccc1NC(=O)Cn1c(=O)n(-c2ccc(CC)cc2)c(=O)c2c(C)c(C(=O)N(C)C)sc21 | active: -2% |
| CCOc1ccccc1CNC(=O)c1ccc2c(c1)nc1n2CCC(C)C1 (stereo not drawn) | inactive: 127% |
| Cc1ccc(S(=O)(=O)N2Cc3ccccc3CC2C(=O)N2CCCCC2)cc1 (stereo not drawn) | inactive: 112% |
| Cc1ccc(CSc2cn(CCNC(=O)c3cccs3)c3ccccc23)cc1 | inactive: 62% |
| Cc1ccc(N2CC(NC(=O)c3ccccc3Br)CC2=O)cc1 (stereo not drawn) | inactive: 76% |
| O=C(Nc1ccc(F)c(Cl)c1)C1CCN(S(=O)(=O)c2ccc3c(c2)CCCN3C(=O)C2CCC2)CC1 | inactive: 67% |
| CC(=O)c1ccc(N2C(=O)Nc3ccccc3S2(=O)=O)cc1 | inactive: 111% |

| Compound | survival |
| --- | --- |
| Cc1nccn1S(=O)(=O)c1c(C(C)C)cc(C(C)C)cc1C(C)C | inactive: 119% |
| CC(C)Sc1nc2sc3c(c2c(=O)n1-c1ccccc1)CCCC3 | active: -2% |
| Nc1ncc(S(=O)(=O)Nc2ccc(OC(F)(F)F)cc2)cn1 | inactive: 63% |
| O=C(Cn1c(SCC(=O)Nc2ccc(F)cc2)nc2ccccc21)NCc1ccc(Cl)cc1 | inactive: 85% |
| O=C(Nc1ccc(F)cc1)c1ccc2c(c1)NC(=O)c1ccccc1S2 | inactive: 54% |
| CN(Cc1ccco1)S(=O)(=O)c1nnc(NC(=O)c2ccccc2)s1 | inactive: 28% |
| Cc1cccc(-c2noc(-c3ccc(NCc4cccnc4)c([N+](=O)[O-])c3)n2)c1 | inactive: 81% |
| Nc1nonc1-c1nc2ccccc2n1CC(=O)Nc1cccc(Cl)c1Cl | inactive: 85% |
| CCc1cccc(NC(=O)Cn2ccn3nc(-c4ccc(OC)c(OC)c4)cc3c2=O)c1 | inactive: 82% |
| CCc1ccc(NS(=O)(=O)c2c(-c3ccccc3)csc2C(=O)OC)cc1 | inactive: 77% |
| Cc1cc(NCc2ccc(Cl)cc2)n2cnnc2n1 | inactive: 94% |
| COc1ccccc1N(CC(=O)Nc1cc(C)cc(C)c1)S(C)(=O)=O | inactive: 87% |
| O=C(Nc1nnc(S(=O)(=O)N2CCCCCC2)s1)c1ccccc1 | inactive: 48% |
| CCC(=O)Nc1cccc(OCc2cc(=O)n3cc(C)ccc3n2)c1 | inactive: 47% |
| COC(=O)c1ccc(Oc2nc3c(c(=O)n(C)c(=O)n3C)n2Cc2ccc(Cl)c(Cl)c2)cc1 | inactive: 135% |
| CCOC(=O)c1cc2ccc(O)cc2oc1=O | inactive: 103% |
| Cc1ccccc1NC(=O)Cn1cc(S(=O)(=O)N2CCCC2)c(S(=O)(=O)N2CCCC2)c1 | inactive: 72% |
| CC1=C(C(=O)Nc2ccccc2)C(c2ccccn2)n2nc(SCc3ccccc3Cl)nc2N1 (stereo not drawn) | inactive: 148% |
| CC(C)n1c(C(=O)OC(C(=O)NCc2ccco2)c2cccnc2)cc2sccc21 (stereo not drawn) | inactive: 98% |
| CCOc1ccc(NC(=O)c2nnn(-c3ccc(F)c(Cl)c3)c2C)cc1 | inactive: 90% |
| COc1ccc(NC(=O)c2oc3ccccc3c2NC(=O)C23CC4CC(CC(C4)C2)C3)cc1 | inactive: 15% |
| COc1ccc(OC)c(NC(=O)c2c(NCc3ccc(N(C)C)cc3)sc3c2CCCC3)c1 | inactive: 135% |

| Compound | survival |
| --- | --- |
| COc1ccc(S(=O)(=O)N(CC(=O)Nc2ccc3c(c2)OCO3)c2ccc(C)cc2)cc1 | inactive: 68% |
| O=C(NCc1ccccc1Cl)c1ccc(NC(=O)N2CCSc3ccccc32)cc1 | inactive: 67% |
| COc1cc(OC)cc(C(=O)Nc2ccc3c(c2)n(C)c(=O)c(=O)n3C)c1 | inactive: 81% |
| Cc1ccc(OCc2cc(=O)n3c4c(sc3n2)CCCC4)cc1C | inactive: 80% |
| O=C(NCCCc1ccccc1)c1nn(-c2ccccc2)nc1CO | inactive: 92% |
| Cn1cc(S(=O)(=O)N2CCCCC2)cc1C(=O)Nc1ccc(OC(F)(F)F)cc1 | inactive: 91% |
| O=C(Cn1cc(S(=O)(=O)c2ccccc2)c(=O)c2cc3c(cc21)OCO3)Nc1ccccc1 | inactive: 133% |
| Cc1nc2nc(SCC(=O)NC3CCC(C)CC3)nn2c(C)c1Cc1ccccc1Cl (stereo not drawn) | inactive: 82% |
| Cc1ccc(S(=O)(=O)C(CNC(=O)c2ccc(C(F)(F)F)cc2)c2ccco2)cc1 (stereo not drawn) | inactive: 134% |
| Cc1noc(-c2ccc(-c3noc(-c4cccc(Cl)c4)n3)cc2)n1 | inactive: 75% |
| CCc1ccc2occ(CC(=O)Nc3sc4c(c3C(=O)NCCOC)CCCC4)c2c1 | inactive: 84% |
| CCn1cc2nc(SCc3cccc(C)c3)n(CCc3ccccc3)c(=O)c2n1 | inactive: 83% |
| Cc1nc2c(-c3ccccc3)c(C)nn2c(C)c1CCC(=O)NCc1ccccc1 | inactive: 76% |
| Cc1ccc(S(=O)(=O)n2nc(-c3ccco3)nc2NCc2ccc(N(C)C)cc2)cc1 | inactive: 95% |
| CCOC(=O)c1ccc(NC(=O)CCC(=O)N2CCSc3ccccc32)cc1 | inactive: 91% |
| CCc1ccc2oc(-c3ccc(C)c(NC(=O)c4ccc(C#N)cc4F)c3)nc2c1 | inactive: 72% |
| CCOC(=O)C1CCCN(C(=O)c2ccc3c(c2)N(Cc2ccccc2F)C(=O)c2ccccc2S3=O)C1 (stereo not drawn) | inactive: 90% |
| COc1ccc(CCNC(=O)CCn2c(=O)c3ccccc3n(CC(=O)Nc3cc(Cl)ccc3C)c2=O)cc1OC | inactive: 76% |
| CC(=O)c1cccc(NC(=O)CCCSc2nc(-c3ccco3)cc(C(F)(F)F)n2)c1 | inactive: 52% |
| COc1ccc2c(c1)c(=O)c(S(=O)(=O)c1ccccc1)cn2CC(=O)Nc1ccc2c(c1)OCO2 | inactive: 71% |
| CCCN(C(=O)Cn1ncc2c([nH]c3ccccc32)c1=O)c1ccc(F)cc1 | inactive: 95% |
| O=C(CCn1nc(-c2ccccc2)c2ccccc2c1=O)Nc1cccnc1 | inactive: 119% |
